Assay results taken from the supplement of paper PMC4967469.
A lower IC50 marks a more sensitive line; a limit (>, <) means that the fit lies beyond the doses tested. AUC, from the same fit, is the share of area under the viability curve across the 256-fold dose range; the more sensitive the line, the further below 1. For some assays here: The top dose, if marked as inferred, is not printed in the source and was worked back from the curve model. For some assays here: An entry number marks a drug with two screens in the source, which often give different values.

Legend:
Assay in all cases: Viability of human cancer cell lines after 72 h of drug (GDSC screen)
Tamoxifen = compound: CC/C(=C(\c1ccccc1)c1ccc(OCCN(C)C)cc1)c1ccccc1 [Tamoxifen]; settings: top dose 5 µM
Description: (§1)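 Human cancer cell lines in 384-well plates, medium with 10% serum, drug for 72 h over a 256-fold dose range (nine 2-fold or five 4-fold steps up to the top dose). Adherent lines were fixed and stained with the nucleic acid dye Syto60, suspension lines read with resazurin; signal relative to control wells, capped at 0 and 100%. One two-parameter sigmoid per drug and line, fitted in a mixed model over all curves with the slope shared within a line.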

VNLG/124 = compound: CCCC(=O)OCc1ccc(OC(=O)/C=C(C)/C=C/C=C(C)/C=C/C2=C(C)CCCC2(C)C)cc1 [VNLG/124]; settings: top dose 5.12 µM; top dose inferred
Description: as §1

Elesclomol = compound: CN(NC(=O)CC(=O)NN(C)C(=S)c1ccccc1)C(=S)c1ccccc1 [Elesclomol]; settings: top dose 0.2 µM; top dose inferred
Description: as §1

HG-5-88-01 = compound: COc1cc(N2CCC(C(N)=O)CC2)ccc1Nc1nc(N)c(Cl)c(Nc2ccccc2S(=O)(=O)C(C)C)n1 [HG-5-88-01]; settings: top dose 10 µM; top dose inferred
Description: as §1

Bleomycin = compound: Cc1c(N)nc([C@H](CC(N)=O)NC[C@H](N)C(N)=O)nc1C(=O)N[C@H](C(=O)N[C@H](C)[C@@H](O)[C@H](C)C(=O)N[C@H](C(=O)NCCc1nc(-c2nc(C(=O)NCCC[S+](C)C)cs2)cs1)[C@@H](C)O)[C@@H](OC1OC(CO)C(O)C(O)C1OC1OC(CO)C(O)C(OC(N)=O)C1O)c1cnc[nH]1 [Bleomycin]
Description: as §1

Masitinib = compound: Cc1ccc(NC(=O)c2ccc(CN3CCN(C)CC3)cc2)cc1Nc1nc(-c2cccnc2)cs1 [Masitinib]; settings: top dose 20 µM
Description: as §1

LAQ824 = compound: O=C(/C=C/c1ccc(CN(CCO)CCc2c[nH]c3ccccc23)cc1)NO [LAQ824]; settings: top dose 1.024 µM; top dose inferred
Description: as §1

OSI-930 = compound: O=C(Nc1ccc(OC(F)(F)F)cc1)c1sccc1NCc1ccnc2ccccc12 [OSI-930]; settings: top dose 10.24 µM
Description: as §1

BX-912 = compound: O=C(Nc1cccc(Nc2ncc(Br)c(NCCc3cnc[nH]3)n2)c1)N1CCCC1 [BX-912]; settings: top dose 10.24 µM; top dose inferred
Description: as §1

NSC-87877 = compound: O=S(=O)(O)c1ccc2cc(N=Nc3cc(S(=O)(=O)O)c4cccnc4c3O)ccc2c1 [NSC-87877]; settings: top dose 16 µM; top dose inferred
Description: as §1

[1] = top dose 50 µM, screen: GDSC drug entry 1378, top dose inferred
[2] = top dose 64 µM, screen: GDSC drug entry 190

Cell Line	AUC (Tamoxifen)	IC50 (Tamoxifen)	AUC (VNLG/124)	IC50 (VNLG/124)	AUC (Elesclomol)	IC50 (Elesclomol)	AUC (HG-5-88-01)	IC50 (HG-5-88-01)	AUC (Bleomycin; [1])	IC50 (Bleomycin; [1])	AUC (Bleomycin; [2])	IC50 (Bleomycin; [2])	AUC (Masitinib)	IC50 (Masitinib)	AUC (LAQ824)	IC50 (LAQ824)	AUC (OSI-930)	IC50 (OSI-930)	AUC (BX-912)	IC50 (BX-912)	AUC (NSC-87877)	IC50 (NSC-87877)
KINGS-1 (glioma, adherent)	0.978	> 5 µM	0.97	> 5.12 µM	0.802	0.146 µM	0.972	> 10 µM	0.803	36.6 µM	0.952	> 64 µM	0.844	> 20 µM	0.561	0.0997 µM	0.968	> 10.2 µM	0.911	> 10.2 µM	0.981	> 16 µM
KM12 (large intestine, adherent)	0.981	> 5 µM	0.979	> 5.12 µM	0.936	> 0.2 µM	0.984	> 10 µM	0.907	> 50 µM	0.494	3.86 µM	0.897	> 20 µM	0.467	0.0516 µM	0.952	> 10.2 µM	0.826	6.91 µM	0.954	> 16 µM
KMRC-20 (kidney, adherent)	0.986	> 5 µM	0.987	> 5.12 µM	0.396	0.00645 µM	0.982	> 10 µM	0.663	8.95 µM	0.797	30.8 µM	0.928	> 20 µM	0.657	0.176 µM	0.98	> 10.2 µM	0.979	> 10.2 µM	0.979	> 16 µM
KNS-42 (glioma, adherent)	0.982	> 5 µM	0.977	> 5.12 µM	0.891	> 0.2 µM	0.975	> 10 µM	0.901	> 50 µM	0.942	> 64 µM	0.936	> 20 µM	0.72	0.308 µM	0.969	> 10.2 µM	0.942	> 10.2 µM	0.981	> 16 µM
KP-N-YN (neuroblastoma, adherent)	0.985	> 5 µM	0.987	> 5.12 µM	0.719	0.0558 µM	0.913	> 10 µM	0.785	23.7 µM	0.778	28.5 µM	0.951	> 20 µM	0.64	0.162 µM	0.978	> 10.2 µM	0.977	> 10.2 µM	0.985	> 16 µM
KU-19-19 (bladder, adherent)	0.977	> 5 µM	0.987	> 5.12 µM	0.403	0.00677 µM	0.931	> 10 µM	0.178	0.333 µM	0.934	> 64 µM	0.985	> 20 µM	0.514	0.07 µM	0.979	> 10.2 µM	0.973	> 10.2 µM	0.978	> 16 µM
KURAMOCHI (ovary, adherent)	0.982	> 5 µM	0.984	> 5.12 µM	0.589	0.0229 µM	0.971	> 10 µM	0.793	27.1 µM	0.421	2.35 µM	0.911	> 20 µM	0.436	0.0416 µM	0.984	> 10.2 µM	0.974	> 10.2 µM	0.97	> 16 µM
KYSE-50 (oesophagus, adherent)	0.989	> 5 µM	0.984	> 5.12 µM	0.876	0.169 µM	0.973	> 10 µM	0.618	6.4 µM	0.701	13.9 µM	0.876	16.9 µM	0.406	0.0362 µM	0.928	> 10.2 µM	0.773	3.63 µM	0.822	8.29 µM
KYSE-150 (oesophagus, adherent)	0.988	> 5 µM	0.985	> 5.12 µM	0.81	0.0996 µM	0.988	> 10 µM	0.758	16.7 µM	0.087	< 0.25 µM	0.978	> 20 µM	0.488	0.0596 µM	0.983	> 10.2 µM	0.965	> 10.2 µM	0.984	> 16 µM
KYSE-220 (oesophagus, adherent)	0.984	> 5 µM	0.974	> 5.12 µM	0.785	0.091 µM	0.912	> 10 µM	0.071	< 0.195 µM	0.246	0.709 µM	0.93	> 20 µM	0.5	0.0639 µM	0.986	> 10.2 µM	0.852	8.65 µM	0.976	> 16 µM
KYSE-410 (oesophagus, adherent)	0.979	> 5 µM	0.984	> 5.12 µM	0.604	0.0246 µM	0.893	> 10 µM	0.786	23.2 µM	0.582	6.81 µM	0.926	> 20 µM	0.405	0.0345 µM	0.985	> 10.2 µM	0.955	> 10.2 µM	0.985	> 16 µM
